From the supplement of paper PMC10037445
Whole data set: some 2,900 compounds, median “NF-kB SEAP reporter activity, fold change vs agonist alone” near 0.99, cut for the highest 2% near 2.6. Some of the results follow.

Experiments:
RAW-Dual [1] = test: NF-kB SEAP reporter activity, fold change vs agonist alone; higher = enhanced NF-kB activity
In short: (§1)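 Reporter activity is given as fold change relative to agonist-alone wells. To measure it, 50 nL of library stock was pin-tooled onto RAW-Dual macrophages (50,000 cells/well, DMEM, 384-well plates), a PRR agonist followed 1 h later, and cells stayed at 37 °C, 5% CO2. Twenty hours on, supernatant was assayed for IRF (QuantiLuc luminescence) and NF-κB (QuantiBlue, 620 nm absorbance), and wells under 70% of agonist-control IncuCyte confluency in both mask sets were marked cytotoxic.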

RAW-Dual [2] = test: NF-kB SEAP reporter activity, fold change vs agonist alone; cytotoxicity flag (confluency mask): not cytotoxic; higher = enhanced NF-kB activity
In short: as §1

RAW-Dual [3] = test: NF-kB SEAP reporter activity, fold change vs agonist alone; cytotoxicity flag (confluency mask): cytotoxic (confluency <70% of control); higher = enhanced NF-kB activity
In short: as §1

[4] = library stock concentration (final ~1000-fold dilution): 10 mM, cytotoxicity flag (confluency mask): cytotoxic (confluency <70% of control), agonist: MPLA (TLR4) […]
[5] = library stock concentration (final ~1000-fold dilution): 10 mM, cytotoxicity flag (confluency mask): not cytotoxic, agonist: Imiquimod (TLR7) […]
[6] = library stock concentration (final ~1000-fold dilution): 10 mM, cytotoxicity flag (confluency mask): not cytotoxic, agonist: MPLA (TLR4) […]
[7] = agonist: ODN 1826 (TLR9) 0.5 ug/mL
[8] = agonist: Pam2CSK4 (TLR2/6) 0.1 ug/mL
[9] = agonist: Pam3CSK4 (TLR2/1) 0.1 ug/mL

`CC1OC(OC2CCC3(C)C(CCC4(C)C3C=CC35OCC6(CCC(C)(C)CC63)C(O)CC45C)C2(C)CO)C(O)C(OC2OC(CO)C(O)C(O)C2O)C1O` (stereo not drawn) was tested, and the “NF-kB SEAP reporter activity” value (RAW-Dual [1]; [4]) was 0.319.
In the case of `COc1cccc(NC(=O)/C=C/c2ccc(Cl)cc2)c1`, the “NF-kB SEAP reporter activity” value (RAW-Dual [1]; [5]) is reported as 1.02 and the “NF-kB SEAP reporter activity” value (RAW-Dual [1]; [6]) is reported as 1.04.
For `COc1cccc(NC(=O)/C=C/c2ccc(Cl)cc2)c1` (library stock concentration (final ~1000-fold dilution): 10 mM), the “NF-kB SEAP reporter activity” value (RAW-Dual [2]; agonist: LPS (TLR4) 0.1 ug/mL) was 1.18, the “NF-kB SEAP reporter activity” value (RAW-Dual [2]; [7]) was 0.828 and the “NF-kB SEAP reporter activity” value (RAW-Dual [2]; [8]) was 0.682. The “NF-kB SEAP reporter activity” value (RAW-Dual [2]; [9]) was 0.711.
For `COc1cc(OC)c2c(=O)[nH]c(-c3cc(C)c(OCCO)c(C)c3)nc2c1` (library stock concentration (final ~1000-fold dilution): 10 mM), the “NF-kB SEAP reporter activity” value (RAW-Dual [2]; agonist: LPS (TLR4) 0.1 ug/mL) was 1.69, the “NF-kB SEAP reporter activity” value (RAW-Dual [2]; [7]) was 1.95 and the “NF-kB SEAP reporter activity” value (RAW-Dual [2]; [8]) was 1.24. For the same compound, the “NF-kB SEAP reporter activity” value (RAW-Dual [2]; [9]) was 1.69.
With `COc1cc(OC)c2c(=O)[nH]c(-c3cc(C)c(OCCO)c(C)c3)nc2c1` the “NF-kB SEAP reporter activity” value (RAW-Dual [1]; [5]) was 1.27 and the “NF-kB SEAP reporter activity” value (RAW-Dual [1]; [6]) was 1.95.
`CNCCN1CCC(OCc2ccccc2)CC1.Cl.Cl` (library stock concentration (final ~1000-fold dilution): 10 mM) was tested, and the “NF-kB SEAP reporter activity” value (RAW-Dual [2]; agonist: LPS (TLR4) 0.1 ug/mL) was 1.03, the “NF-kB SEAP reporter activity” value (RAW-Dual [2]; [7]) was 1.45 and the “NF-kB SEAP reporter activity” value (RAW-Dual [2]; [8]) was 0.877. The “NF-kB SEAP reporter activity” value (RAW-Dual [2]; [9]) was 1.53.
For `CNCCN1CCC(OCc2ccccc2)CC1.Cl.Cl`, the “NF-kB SEAP reporter activity” value (RAW-Dual [1]; [5]) was 1.55 and the “NF-kB SEAP reporter activity” value (RAW-Dual [1]; [6]) was 0.921.
With `CC(C)(Cc1ccc2ccccc2c1)NCC(O)COc1cccc(Cl)c1C#N` (stereo not drawn) (library stock concentration (final ~1000-fold dilution): 10 mM) the “NF-kB SEAP reporter activity” value (RAW-Dual [2]; agonist: LPS (TLR4) 0.1 ug/mL) was 0.273, the “NF-kB SEAP reporter activity” value (RAW-Dual [2]; [7]) was 0.962 and the “NF-kB SEAP reporter activity” value (RAW-Dual [2]; [8]) was 0.164. For the same compound, the “NF-kB SEAP reporter activity” value (RAW-Dual [2]; [9]) was 1.03.
In the case of `CC(C)(Cc1ccc2ccccc2c1)NCC(O)COc1cccc(Cl)c1C#N` (stereo not drawn), the “NF-kB SEAP reporter activity” value (RAW-Dual [1]; [5]) is reported as 0.896 and the “NF-kB SEAP reporter activity” value (RAW-Dual [1]; [6]) is reported as 0.972.
In the case of `Cn1cc(-c2ccc(F)c(C(F)(F)F)c2)nc1C1CCN(c2ncnc3[nH]ncc23)CC1` (library stock concentration (final ~1000-fold dilution): 2 mM), the “NF-kB SEAP reporter activity” value (RAW-Dual [2]; agonist: LPS (TLR4) 0.1 ug/mL) is reported as 1.41, the “NF-kB SEAP reporter activity” value (RAW-Dual [2]; [7]) is reported as 1.04 and the “NF-kB SEAP reporter activity” value (RAW-Dual [2]; [8]) is reported as 1.04. The “NF-kB SEAP reporter activity” value (RAW-Dual [2]; [9]) was 1.
With `Cn1cc(-c2ccc(F)c(C(F)(F)F)c2)nc1C1CCN(c2ncnc3[nH]ncc23)CC1` the “NF-kB SEAP reporter activity” value (RAW-Dual [1]; library stock concentration (final ~1000-fold dilution): 2 mM, cytotoxicity flag (confluency mask): not cytotoxic, agonist: Imiquimod (TLR7) […]) was 0.187 and the “NF-kB SEAP reporter activity” value (RAW-Dual [1]; library stock concentration (final ~1000-fold dilution): 2 mM, cytotoxicity flag (confluency mask): not cytotoxic, agonist: MPLA (TLR4) […]) was 1.05.
With `Cc1cc(=O)oc2cc(O)ccc12` (library stock concentration (final ~1000-fold dilution): 10 mM) the “NF-kB SEAP reporter activity” value (RAW-Dual [2]; agonist: LPS (TLR4) 0.1 ug/mL) was 0.99, the “NF-kB SEAP reporter activity” value (RAW-Dual [2]; [7]) was 1.06 and the “NF-kB SEAP reporter activity” value (RAW-Dual [2]; [8]) was 1.22. For the same compound, the “NF-kB SEAP reporter activity” value (RAW-Dual [2]; [9]) was 1.26.
For `Cc1cc(=O)oc2cc(O)ccc12`, the “NF-kB SEAP reporter activity” value (RAW-Dual [1]; [5]) was 1.04 and the “NF-kB SEAP reporter activity” value (RAW-Dual [1]; [6]) was 1.
With `COc1cccc(-c2ccc(NC(=O)C3=C(C(=O)O)CCC3)c(F)c2)c1` (library stock concentration (final ~1000-fold dilution): 10 mM) the “NF-kB SEAP reporter activity” value (RAW-Dual [2]; agonist: LPS (TLR4) 0.1 ug/mL) was 0.752, the “NF-kB SEAP reporter activity” value (RAW-Dual [2]; [7]) was 1.37 and the “NF-kB SEAP reporter activity” value (RAW-Dual [2]; [8]) was 0.847. For the same compound, the “NF-kB SEAP reporter activity” value (RAW-Dual [2]; [9]) was 1.19.
In the case of `COc1cccc(-c2ccc(NC(=O)C3=C(C(=O)O)CCC3)c(F)c2)c1`, the “NF-kB SEAP reporter activity” value (RAW-Dual [1]; [5]) is reported as 1.4 and the “NF-kB SEAP reporter activity” value (RAW-Dual [1]; [6]) is reported as 0.947.
With `CCCc1cc(C)[nH]c(=O)c1CNC(=O)c1cc(-c2ccc(N3CCN(C)CC3)nc2)nc2c1cnn2C(C)C` the “NF-kB SEAP reporter activity” value (RAW-Dual [1]; [5]) was 0.343 and the “NF-kB SEAP reporter activity” value (RAW-Dual [1]; [6]) was 0.478.
In the case of `CCCc1cc(C)[nH]c(=O)c1CNC(=O)c1cc(-c2ccc(N3CCN(C)CC3)nc2)nc2c1cnn2C(C)C` (library stock concentration (final ~1000-fold dilution): 10 mM), the “NF-kB SEAP reporter activity” value (RAW-Dual [2]; agonist: LPS (TLR4) 0.1 ug/mL) is reported as 0.827, the “NF-kB SEAP reporter activity” value (RAW-Dual [2]; [7]) is reported as 0.752 and the “NF-kB SEAP reporter activity” value (RAW-Dual [2]; [8]) is reported as 0.837. For the same compound, the “NF-kB SEAP reporter activity” value (RAW-Dual [2]; [9]) was 0.714.
In the case of `COc1ccc(C(=O)CC2(O)C(=O)Nc3c(Cl)ccc(Cl)c32)cc1` (stereo not drawn), the “NF-kB SEAP reporter activity” value (RAW-Dual [1]; [5]) is reported as 0.903 and the “NF-kB SEAP reporter activity” value (RAW-Dual [1]; [6]) is reported as 0.831.
For `COc1ccc(C(=O)CC2(O)C(=O)Nc3c(Cl)ccc(Cl)c32)cc1` (stereo not drawn) (library stock concentration (final ~1000-fold dilution): 10 mM), the “NF-kB SEAP reporter activity” value (RAW-Dual [2]; agonist: LPS (TLR4) 0.1 ug/mL) was 0.776, the “NF-kB SEAP reporter activity” value (RAW-Dual [2]; [7]) was 0.749 and the “NF-kB SEAP reporter activity” value (RAW-Dual [2]; [8]) was 0.48. For the same compound, the “NF-kB SEAP reporter activity” value (RAW-Dual [2]; [9]) was 0.581.
With `O=C(NC1CCN(CCCCC2(C(=O)NCC(F)(F)F)c3ccccc3-c3ccccc32)CC1)c1ccccc1-c1ccc(C(F)(F)F)cc1` the “NF-kB SEAP reporter activity” value (RAW-Dual [1]; library stock concentration (final ~1000-fold dilution): 10 mM, cytotoxicity flag (confluency mask): cytotoxic (confluency <70% of control), agonist: Imiquimod (TLR7) […]) was 0.6 and the “NF-kB SEAP reporter activity” value (RAW-Dual [1]; [4]) was 0.766.
With `O=C(NC1CCN(CCCCC2(C(=O)NCC(F)(F)F)c3ccccc3-c3ccccc32)CC1)c1ccccc1-c1ccc(C(F)(F)F)cc1` (library stock concentration (final ~1000-fold dilution): 10 mM) the “NF-kB SEAP reporter activity” value (RAW-Dual [3]; agonist: LPS (TLR4) 0.1 ug/mL) was 0.351, the “NF-kB SEAP reporter activity” value (RAW-Dual [3]; [7]) was 0.196 and the “NF-kB SEAP reporter activity” value (RAW-Dual [3]; [8]) was 0.249. For the same compound, the “NF-kB SEAP reporter activity” value (RAW-Dual [3]; [9]) was 0.157.
`COS(=O)(=O)[O-].Cc1cc2c3c([n+](C)c4ccc(F)cc4c3c1)-c1cc(F)ccc1N2C` (library stock concentration (final ~1000-fold dilution): 10 mM) was tested, and the “NF-kB SEAP reporter activity” value (RAW-Dual [2]; agonist: LPS (TLR4) 0.1 ug/mL) was 0.773, the “NF-kB SEAP reporter activity” value (RAW-Dual [2]; [7]) was 0.96 and the “NF-kB SEAP reporter activity” value (RAW-Dual [2]; [8]) was 0.664. For the same compound, the “NF-kB SEAP reporter activity” value (RAW-Dual [2]; [9]) was 0.53.
For `COS(=O)(=O)[O-].Cc1cc2c3c([n+](C)c4ccc(F)cc4c3c1)-c1cc(F)ccc1N2C`, the “NF-kB SEAP reporter activity” value (RAW-Dual [1]; [5]) was 0.492 and the “NF-kB SEAP reporter activity” value (RAW-Dual [1]; [6]) was 0.998.
`COc1cc(Nc2ncc(F)c(Nc3ccc4c(n3)NC(=O)C(C)(C)O4)n2)cc(OC)c1OC.O=S(=O)(O)c1ccccc1` (library stock concentration (final ~1000-fold dilution): 10 mM) was tested, and the “NF-kB SEAP reporter activity” value (RAW-Dual [2]; agonist: LPS (TLR4) 0.1 ug/mL) was 0.615, the “NF-kB SEAP reporter activity” value (RAW-Dual [2]; [7]) was 0.94 and the “NF-kB SEAP reporter activity” value (RAW-Dual [2]; [8]) was 0.285. The “NF-kB SEAP reporter activity” value (RAW-Dual [2]; [9]) was 0.848.
`COc1cc(Nc2ncc(F)c(Nc3ccc4c(n3)NC(=O)C(C)(C)O4)n2)cc(OC)c1OC.O=S(=O)(O)c1ccccc1` was tested, and the “NF-kB SEAP reporter activity” value (RAW-Dual [1]; [5]) was 0.897 and the “NF-kB SEAP reporter activity” value (RAW-Dual [1]; [6]) was 0.963.
